# Assay results taken from the supplement of paper PMC10126150.
# Values marked as one replicate rest on one cluster of the flow cell; about a third of the high ones do not repeat.
# Tested on: ATP
# Assay: switch fluorescence ratio, 500 uM ATP over buffer (Cy3 cluster intensity, sum of 5 cycles each) (fold (ratio)); higher = stronger signal-on switching upon ATP binding; sequences stand for … in TCGTCGGCAGCGTCAGATGTGTATAAGAGACAGTTTTTTTTTTTTTTTTTTTTTTTTT…TC
# Settings: aptamer strand: ATP DNA aptamer (quencher-CACCTGGGGGAGTATTGCGGAGGAAGG + anchor), 100 nM annealed; ATP concentration: 500 uM; one replicate
# In short: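 The fluorescence ratio divides summed target-cycle Cy3 intensity by summed buffer-cycle Cy3 intensity for each cluster and is averaged per switch-domain sequence. Cy3-labelled switching-strand clusters on a modified Illumina MiSeq flow-cell were annealed to 100 nM quencher-labelled ATP aptamer, then imaged in selection buffer and again after 15 min with 500 uM ATP at 22 °C. Five such cycles were run, with NaOH stripping and re-annealing between them, and clusters outside 100-1000 RFU were excluded.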
# 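Note: ATP exposure 15 min at 22 °C before imaging.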
row,Sequence,switch fluorescence ratio
1,GGGGGTCTAA,0.991
2,GGGGGTTCTC,0.99
3,GGGGTACAAA,1.03
4,GGGGTATGAA,0.993
5,GGGGTCCTCC,1.34
6,GGGGTCTAC,0.984
7,GGGGTCTAT,1.01
8,GGGGTGAAAC,1.01
9,GGGGTGCCGT,0.964
10,GGGGTTGAC,0.997
11,GGGTACAGTG,0.977
12,GGGTACCGGT,0.997
13,GGGTACCTCT,1.02
14,GGGTACGCAA,1.91
15,GGGTAGATCG,1.05
16,GGGTAGG,0.99
17,GGGTAGGAGA,1.02
18,GGGTAGTCAA,0.991
19,GGGTATCTCA,0.986
20,GGGTATGACA,1
21,GGGTATGCGC,0.953
22,GGGTCAATTA,1.02
23,GGGTCAGGTC,1.09
24,GGGTCAGTCG,0.938
25,GGGTCCGTAC,1.05
26,GGGTCGAAC,1.01

row,Sequence,switch fluorescence ratio
1,GGGTCGTTGT,1.04
2,GGGTCTGCAG,0.945
3,GGGTCTGTTA,1
4,GGGTGCAGTC,0.926
5,GGGTGCGAAT,1.17
6,GGGTGCGCCT,1.07
7,GGGTGCGTAA,0.996
8,GGGTGGAACT,1.03
9,GGGTGGGCTG,0.933
10,GGGTGGGGCC,0.973
11,GGGTGGTG,1
12,GGGTGTCCAT,0.965
13,GGGTGTGACA,0.969
14,GGGTGTGCGA,0.987
15,GGGTTAG,1.02
16,GGGTTAGAGC,0.996
17,GGGTTATGAC,1.05
18,GGGTTCACTT,0.998
19,GGGTTCATAA,0.968
20,GGGTTCTTGA,0.964
21,GGGTTGAACT,0.987
22,GGGTTGGGA,1.05
23,GGGTTGTAAC,0.988
24,GGGTTTTGTC,0.962
25,GGTAAATACG,1.09
26,GGTAAATCC,0.968

row,Sequence,switch fluorescence ratio
1,GGTAACAGGA,0.99
2,GGTAACTAGT,1
3,GGTAAGAACC,1.01
4,GGTAAGAGCG,1.02
5,GGTAAGCAGC,0.998
6,GGTAAGTGG,0.942
7,GGTAATCCTC,1.06
8,GGTACAAGTG,0.938
9,GGTACAGAG,1.15
10,GGTACATATC,0.997
11,GGTACATCGC,1
12,GGTACCCGGC,1.04
13,GGTACCGCGA,2.41
14,GGTACCGGCC,1.13
15,GGTAGAAGAT,0.974
16,GGTAGACCTT,1.18
17,GGTAGAGAGC,1.02
18,GGTAGAGGCG,1.01
19,GGTAGAGGT,1.03
20,GGTAGATTTG,0.986
21,GGTAGCAAAT,0.984
22,GGTAGCACGG,1.01
23,GGTAGCCATT,0.962
24,GGTAGCCGCC,0.976
25,GGTAGCGCGG,0.968
26,GGTAGGCATG,1

row,Sequence,switch fluorescence ratio
1,GGTAGGTAGA,1.04
2,GGTAGTAGGT,0.99
3,GGTAGTTGCA,0.962
4,GGTATAAATC,0.969
5,GGTATATGCT,0.982
6,GGTATCAACT,1.01
7,GGTATCAAGA,0.967
8,GGTATCATTT,1.01
9,GGTATCGTG,1.03
10,GGTATCTCGC,1.02
11,GGTATGACGG,0.973
12,GGTATGCCGT,0.908
13,GGTATGTGGA,0.965
14,GGTCACTTAG,1.02
15,GGTCAGGCAA,1.06
16,GGTCATTCGG,0.974
17,GGTCCAAGCT,1.03
18,GGTCCAGCTT,0.991
19,GGTCCATTGG,1
20,GGTCCTAAGC,1.04
21,GGTCCTGTAT,0.991
22,GGTCCTTTTT,0.984
23,GGTCGACGGT,1.04
24,GGTCGACTGA,0.989
25,GGTCGCACTT,0.994
26,GGTCGCTAGT,0.991

row,Sequence,switch fluorescence ratio
1,GGTCGCTTGA,0.962
2,GGTCGGGCGA,0.822
3,GGTCGGTGTT,1.02
4,GGTCGTCAAC,0.997
5,GGTCGTGGG,0.996
6,GGTCGTGTC,0.991
7,GGTCTACGGG,1
8,GGTCTATGAT,1.01
9,GGTCTCCCCT,1.1
10,GGTCTCTCCA,0.988
11,GGTCTGATCT,0.984
12,GGTCTGGACT,1.03
13,GGTCTGTGCG,1
14,GGTCTTACTT,1.04
15,GGTCTTAGCC,1.01
16,GGTCTTCGCT,0.991
17,GGTGAAATAG,0.999
18,GGTGAAATT,1.13
19,GGTGAACATT,1.01
20,GGTGAACCCT,1.03
21,GGTGAACGGG,1.02
22,GGTGACACAC,1.13
23,GGTGACTCCG,1.04
24,GGTGAGGGCG,0.982
25,GGTGAGGTAA,1.02
26,GGTGAGTAAG,0.989

row,Sequence,switch fluorescence ratio
1,GGTGAGTAGC,0.995
2,GGTGATCCGG,0.967
3,GGTGATTTT,1.03
4,GGTGCAAAAC,2.54
5,GGTGCGATG,0.975
6,GGTGCGTAGA,1.03
7,GGTGCGTAGC,0.972
8,GGTGCGTGTC,1.11
9,GGTGCGTTCG,0.966
10,GGTGCTTCTT,0.994
11,GGTGGAAAGA,0.982
12,GGTGGCAACG,1.01
13,GGTGGCAGCG,1.02
14,GGTGGCCGT,1.02
15,GGTGGCGATT,1.04
16,GGTGGCTGG,0.988
17,GGTGGGGTAC,0.994
18,GGTGGGTGAT,0.986
19,GGTGGTATC,0.979
20,GGTGGTATGA,0.994
21,GGTGGTCTGT,0.983
22,GGTGTAGGGT,1.03
23,GGTGTCAAAC,0.977
24,GGTGTCATGG,0.971
25,GGTGTCCGGC,0.928
26,GGTGTCGG,0.996

row,Sequence,switch fluorescence ratio
1,GGTGTCGGTT,0.994
2,GGTGTCTTAT,0.996
3,GGTGTGCCCT,1.05
4,GGTGTGTACC,0.99
5,GGTGTTAATC,0.971
6,GGTGTTAGCT,1.05
7,GGTGTTATCA,0.964
8,GGTGTTGCTG,1
9,GGTGTTTTGC,0.993
10,GGTTAAATCA,0.971
11,GGTTAATGAG,0.991
12,GGTTACCGCT,1.06
13,GGTTACGGAC,1.37
14,GGTTAGACGA,0.99
15,GGTTAGGCAG,0.991
16,GGTTAGTATA,0.941
17,GGTTAGTTAT,0.998
18,GGTTAGTTTC,0.985
19,GGTTATACGG,1.05
20,GGTTATGGCA,0.987
21,GGTTATGTGG,0.979
22,GGTTATTAA,0.976
23,GGTTCATAGG,1.02
24,GGTTCCCGCC,1.03
25,GGTTCCCTTT,0.963
26,GGTTCCTAA,1.03

row,Sequence,switch fluorescence ratio
1,GGTTCGGAGT,0.977
2,GGTTCGTATG,0.956
3,GGTTCTCCG,1.07
4,GGTTGAACGG,0.958
5,GGTTGAGCCA,0.998
6,GGTTGATCTA,0.983
7,GGTTGCACGT,1.04
8,GGTTGCCCGT,0.97
9,GGTTGCCGAA,1.07
10,GGTTGGAGCA,1.02
11,GGTTGGCCCT,1.01
12,GGTTGGGCAA,1.21
13,GGTTGGTACA,0.979
14,GGTTGGTCTG,0.987
15,GGTTGTAAC,0.94
16,GGTTGTAACT,0.99
17,GGTTGTATTA,0.997
18,GGTTGTGGTC,0.989
19,GGTTGTTATT,1.02
